Values joined by “and” are separate entries in the source; they are usually repeats but may differ in a detail not shown here. Equal values may be shown once. Over roughly 2,900 compounds, “IRF Lucia reporter activity, fold change vs agonist alone” has its median near 0.9; the highest 2% begin near 2.8. The list shows a part of the results.
Key:
[1] = tested on: RAW-Dual; experiment: IRF Lucia reporter activity, fold change vs agonist alone; cytotoxicity flag (confluency mask): not cytotoxic; higher = enhanced IRF activity
How it was run: (§1)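 After 50 nL of library stock was delivered by pin tool to RAW-Dual macrophages (50,000 cells/well, DMEM, 384-well plates), a PRR agonist was added 1 h later and the plates were kept at 37 °C, 5% CO2. Twenty hours later, IRF was read from supernatant by QuantiLuc luminescence and NF-κB by QuantiBlue absorbance at 620 nm. Reporter activity is stated as fold change over agonist-alone wells. Wells with IncuCyte confluency under 70% of agonist controls in both mask sets were counted as cytotoxic.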

[2] = tested on: RAW-Dual; experiment: IRF Lucia reporter activity, fold change vs agonist alone; higher = enhanced IRF activity; settings: library stock concentration (final ~1000-fold dilution): 10 mM, agonist: MPLA (TLR4) […]
How it was run: as §1

[3] = tested on: RAW-Dual; experiment: IRF Lucia reporter activity, fold change vs agonist alone; cytotoxicity flag (confluency mask): cytotoxic (confluency <70% of control); higher = enhanced IRF activity
How it was run: as §1

[4] = agonist: 3'3'-cGAMP (STING) 10 ug/mL
[5] = cytotoxicity flag (confluency mask): not cytotoxic

## COC(=O)NC(C(=O)N1CC2(CC2)CC1c1ncc(-c2ccc3c(c2)C(F)(F)c2cc(-c4ccc5nc(C6C7CCC(C7)N6C(=O)C(NC(=O)OC)C(C)C)[nH]c5c4)ccc2-3)[nH]1)C(C)C (stereo not given) (library stock concentration (final ~1000-fold dilution): 10 mM)
[1]; [4]
  IRF Lucia reporter activity: 0.913
[1]; agonist: LPS (TLR4) 0.1 ug/mL
  IRF Lucia reporter activity: 1.23

## COC(=O)NC(C(=O)N1CC2(CC2)CC1c1ncc(-c2ccc3c(c2)C(F)(F)c2cc(-c4ccc5nc(C6C7CCC(C7)N6C(=O)C(NC(=O)OC)C(C)C)[nH]c5c4)ccc2-3)[nH]1)C(C)C (stereo not given)
[2]; [5]
  IRF Lucia reporter activity: 0.979

## CN(C)CC(=O)Nc1ccc2[nH]c(=O)c3ccccc3c2c1.Cl
[2]; [5]
  IRF Lucia reporter activity: 1.03

## CN(C)CC(=O)Nc1ccc2[nH]c(=O)c3ccccc3c2c1.Cl (library stock concentration (final ~1000-fold dilution): 10 mM)
[1]; [4]
  IRF Lucia reporter activity: 0.854
[1]; agonist: LPS (TLR4) 0.1 ug/mL
  IRF Lucia reporter activity: 0.837

## CN(C)CCC(CSc1ccccc1)Nc1ccc(S(=O)(=O)NC(=O)c2ccc(N3CCN(Cc4ccccc4-c4ccc(Cl)cc4)CC3)cc2)cc1[N+](=O)[O-] (stereo not given) (library stock concentration (final ~1000-fold dilution): 10 mM)
[1]; [4]
  IRF Lucia reporter activity: 0.461
[1]; agonist: LPS (TLR4) 0.1 ug/mL
  IRF Lucia reporter activity: 0.236

## CN(C)CCC(CSc1ccccc1)Nc1ccc(S(=O)(=O)NC(=O)c2ccc(N3CCN(Cc4ccccc4-c4ccc(Cl)cc4)CC3)cc2)cc1[N+](=O)[O-] (stereo not given)
[2]; [5]
  IRF Lucia reporter activity: 0.663

## CS(=O)c1ccc(-c2nc(-c3ccc(F)cc3)c(-c3ccncc3)[nH]2)cc1 (stereo not given) (library stock concentration (final ~1000-fold dilution): 10 mM)
[1]; [4]
  IRF Lucia reporter activity: 0.28
[1]; agonist: LPS (TLR4) 0.1 ug/mL
  IRF Lucia reporter activity: 1.12

## CS(=O)c1ccc(-c2nc(-c3ccc(F)cc3)c(-c3ccncc3)[nH]2)cc1 (stereo not given)
[2]; [5]
  IRF Lucia reporter activity: 1

## Cc1c(Cn2c(C)nc3c(C(=O)O)cc(N4CCOCC4)cc32)cccc1C(F)(F)F (library stock concentration (final ~1000-fold dilution): 10 mM)
[1]; [4]
  IRF Lucia reporter activity: 1.19
[1]; agonist: LPS (TLR4) 0.1 ug/mL
  IRF Lucia reporter activity: 1.22

## O=C(NCc1ccc(Oc2ccccc2)cc1)c1nc(-c2cc(Br)c(O)c(Br)c2)no1 (library stock concentration (final ~1000-fold dilution): 10 mM)
[1]; [4]
  IRF Lucia reporter activity: 1.16
[1]; agonist: LPS (TLR4) 0.1 ug/mL
  IRF Lucia reporter activity: 1.08

## O=C(NCc1ccc(Oc2ccccc2)cc1)c1nc(-c2cc(Br)c(O)c(Br)c2)no1
[2]; [5]
  IRF Lucia reporter activity: 1.06

## Cn1c(=O)c2c(ncn2CC(O)CO)n(C)c1=O (stereo not given)
[2]; [5]
  IRF Lucia reporter activity: 0.463

## Cn1c(=O)c2c(ncn2CC(O)CO)n(C)c1=O (stereo not given) (library stock concentration (final ~1000-fold dilution): 10 mM)
[1]; [4]
  IRF Lucia reporter activity: 0.43
[1]; agonist: LPS (TLR4) 0.1 ug/mL
  IRF Lucia reporter activity: 0.948

## Nc1nccs1 (library stock concentration (final ~1000-fold dilution): 10 mM)
[1]; [4]
  IRF Lucia reporter activity: 1.1
[1]; agonist: LPS (TLR4) 0.1 ug/mL
  IRF Lucia reporter activity: 1.06

## Nc1nccs1
[2]; [5]
  IRF Lucia reporter activity: 1.11

## O=S(=O)(NC1CCNCC1)c1cc(S(=O)(=O)c2ccccc2)ccc1C(F)(F)F
[2]; [5]
  IRF Lucia reporter activity: 1.04

## O=S(=O)(NC1CCNCC1)c1cc(S(=O)(=O)c2ccccc2)ccc1C(F)(F)F (library stock concentration (final ~1000-fold dilution): 10 mM)
[1]; [4]
  IRF Lucia reporter activity: 0.792
[1]; agonist: LPS (TLR4) 0.1 ug/mL
  IRF Lucia reporter activity: 1.05

## NC(=O)c1cccnc1 (library stock concentration (final ~1000-fold dilution): 10 mM)
[1]; [4]
  IRF Lucia reporter activity: 1.01
[1]; agonist: LPS (TLR4) 0.1 ug/mL
  IRF Lucia reporter activity: 0.983

## NC(=O)c1cccnc1
[2]; [5]
  IRF Lucia reporter activity: 0.986

## O=C(/C=C/c1ccccc1)NC(NC(=S)Nc1ccc(Cl)cc1)C(Cl)(Cl)Cl (stereo not given)
[2]; cytotoxicity flag (confluency mask): cytotoxic (confluency <70% of control)
  IRF Lucia reporter activity: 1.34

## O=C(/C=C/c1ccccc1)NC(NC(=S)Nc1ccc(Cl)cc1)C(Cl)(Cl)Cl (stereo not given) (library stock concentration (final ~1000-fold dilution): 10 mM)
[3]; [4]
  IRF Lucia reporter activity: 0.341
[3]; agonist: LPS (TLR4) 0.1 ug/mL
  IRF Lucia reporter activity: 1.2

## O=C1c2ccccc2-c2n[nH]c3cccc1c23 (library stock concentration (final ~1000-fold dilution): 10 mM)
[1]; [4]
  IRF Lucia reporter activity: 0.0638
[1]; agonist: LPS (TLR4) 0.1 ug/mL
  IRF Lucia reporter activity: 0.205

## O=C1c2ccccc2-c2n[nH]c3cccc1c23
[2]; [5]
  IRF Lucia reporter activity: 0.18

## CC(C)CC(NC(=O)CNC(=O)c1cc(Cl)ccc1Cl)B(O)O (stereo not given)
[2]; [5]
  IRF Lucia reporter activity: 1.08

## CC(C)CC(NC(=O)CNC(=O)c1cc(Cl)ccc1Cl)B(O)O (stereo not given) (library stock concentration (final ~1000-fold dilution): 10 mM)
[1]; [4]
  IRF Lucia reporter activity: 1
[1]; agonist: LPS (TLR4) 0.1 ug/mL
  IRF Lucia reporter activity: 1.16

## CNC(=O)c1ccc(N2C(=S)N(c3cnc(C#N)c(C(F)(F)F)c3)C(=O)C23CCC3)cc1F
[2]; [5]
  IRF Lucia reporter activity: 1.17

## CNC(=O)c1ccc(N2C(=S)N(c3cnc(C#N)c(C(F)(F)F)c3)C(=O)C23CCC3)cc1F (library stock concentration (final ~1000-fold dilution): 10 mM)
[1]; [4]
  IRF Lucia reporter activity: 1.1
[1]; agonist: LPS (TLR4) 0.1 ug/mL
  IRF Lucia reporter activity: 1.04

## CC(NC(=O)c1c(N)nn2cccnc12)c1cc2cccc(C#Cc3cnn(C)c3)c2c(=O)n1-c1ccccc1 (stereo not given) (library stock concentration (final ~1000-fold dilution): 10 mM)
[1]; [4]
  IRF Lucia reporter activity: 0.813
[1]; agonist: LPS (TLR4) 0.1 ug/mL
  IRF Lucia reporter activity: 1.14

## Cl.N=c1ccn2c(n1)OC1C(O)C(CO)OC12 (stereo not given)
[2]; [5]
  IRF Lucia reporter activity: 0.879

## Cl.N=c1ccn2c(n1)OC1C(O)C(CO)OC12 (stereo not given) (library stock concentration (final ~1000-fold dilution): 10 mM)
[1]; [4]
  IRF Lucia reporter activity: 0.707
[1]; agonist: LPS (TLR4) 0.1 ug/mL
  IRF Lucia reporter activity: 0.867

## CC(C)(C)c1ccc(Cn2nc(-c3ccc(Cl)cc3)cc2C(=O)NO)cc1 (library stock concentration (final ~1000-fold dilution): 10 mM)
[1]; [4]
  IRF Lucia reporter activity: 1.05
[1]; agonist: LPS (TLR4) 0.1 ug/mL
  IRF Lucia reporter activity: 1.16

## CCC(C)C(=O)OC1CC(O)C=C2C=CC(C)C(CCC(O)CC(O)CC(=O)O)C21 (stereo not given) (library stock concentration (final ~1000-fold dilution): 10 mM)
[1]; [4]
  IRF Lucia reporter activity: 1.01 and 0.999
[1]; agonist: LPS (TLR4) 0.1 ug/mL
  IRF Lucia reporter activity: 1.13

## Cc1c[nH]c(-c2cnc(NCCNc3ccc(C#N)cn3)nc2-c2ccc(Cl)cc2Cl)n1 (library stock concentration (final ~1000-fold dilution): 10 mM)
[1]; [4]
  IRF Lucia reporter activity: 0.367
[1]; agonist: LPS (TLR4) 0.1 ug/mL
  IRF Lucia reporter activity: 0.257

## Cc1c[nH]c(-c2cnc(NCCNc3ccc(C#N)cn3)nc2-c2ccc(Cl)cc2Cl)n1
[2]; [5]
  IRF Lucia reporter activity: 0.317

## Fc1ccc2[nH]ccc2c1-c1nc(N2CCOCC2)c2sc(CN3CCN(CC4CC4)CC3)cc2n1 (library stock concentration (final ~1000-fold dilution): 10 mM)
[1]; [4]
  IRF Lucia reporter activity: 0.732
[1]; agonist: LPS (TLR4) 0.1 ug/mL
  IRF Lucia reporter activity: 2.74
